Assay results from the supplement of paper PMC8728848.
This is one part of the list.

Tests used:
Experiment in all cases: glycan array binding signal (z-score within array); higher = stronger binding
Settings in all cases: glycan notation: IUPAC condensed, linker removed
Fuc(a1-2)Gal = molecular target: Fuc(a1-2)Gal
Summary of the method: (§1)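 Negative Z-scores can be read as non-binding. The Z-score is calculated within each array and then averaged across arrays of one protein sequence at different concentrations or buffers and across linkers. Arrays, 3228 in all, were curated from the Consortium for Functional Glycomics database and kept only where the protein sequence was available.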

Fuc(a1-2)Gal(b1-3)GalNAc = molecular target: Fuc(a1-2)Gal(b1-3)GalNAc
Summary of the method: as §1

[1] = molecular target: Fuc(a1-2)Gal(b1-3)GalNAc(a1-3)[Fuc(a1-2)]Gal(b1-4)Glc
Summary of the method: as §1

[2] = molecular target: Fuc(a1-2)Gal(b1-3)GalNAc(a1-3)[Fuc(a1-2)]Gal(b1-4)GlcNAc
Summary of the method: as §1

[3] = molecular target: Fuc(a1-2)Gal(b1-3)GalNAc(b1-3)Gal
Summary of the method: as §1

[4] = molecular target: Fuc(a1-2)Gal(b1-3)GalNAc(b1-3)Gal(a1-4)Gal(b1-4)Glc
Summary of the method: as §1

[5] = molecular target: Fuc(a1-2)Gal(b1-3)GalNAc(b1-3)Gal(b1-4)Glc
Summary of the method: as §1

[6] = molecular target: Fuc(a1-2)Gal(b1-3)GalNAc(b1-4)[Neu5Ac(a2-3)]Gal(b1-4)Glc
Summary of the method: as §1

Fuc(a1-2)Gal(b1-3)GlcNAc = molecular target: Fuc(a1-2)Gal(b1-3)GlcNAc
Summary of the method: as §1

[7] = molecular target: Fuc(a1-2)Gal(b1-3)GlcNAc(b1-2)Man(a1-3)[Fuc(a1-2)Gal(b1-3)GlcNAc(b1-2)Man(a1-6)]Man(b1-4)GlcNAc(b1-4)GlcNAc
Summary of the method: as §1

[8] = molecular target: Fuc(a1-2)Gal(b1-3)GlcNAc(b1-2)Man(a1-3)[Fuc(a1-2)Gal(b1-3)GlcNAc(b1-2)Man(a1-6)]Man(b1-4)GlcNAc(b1-4)[Fuc(a1-6)]GlcNAc
Summary of the method: as §1

[9] = molecular target: Fuc(a1-2)Gal(b1-3)GlcNAc(b1-3)Gal(b1-4)Glc
Summary of the method: as §1

[10] = molecular target: Fuc(a1-2)Gal(b1-3)GlcNAc(b1-3)GalNAc
Summary of the method: as §1

[11] = molecular target: Fuc(a1-2)Gal(b1-3)GlcNAc(b1-3)[Fuc(a1-2)Gal(b1-3)GlcNAc(b1-6)]GalNAc
Summary of the method: as §1

[12] = molecular target: Fuc(a1-2)Gal(b1-3)GlcNAc(b1-3)[Fuc(a1-3)[Gal(b1-4)]GlcNAc(b1-6)]Gal(b1-4)Glc
Summary of the method: as §1

[13] = molecular target: Fuc(a1-2)Gal(b1-3)GlcNAc(b1-3)[Gal(b1-4)GlcNAc(b1-6)]Gal(b1-4)Glc
Summary of the method: as §1

[14] = molecular target: Fuc(a1-2)Gal(b1-3)GlcNAc(b1-3)[Neu5Ac(a2-6)Gal(b1-4)GlcNAc(b1-6)]Gal(b1-4)Glc
Summary of the method: as §1

[15] = molecular target: Fuc(a1-2)Gal(b1-3)GlcNAc6S
Summary of the method: as §1

[16] = molecular target: Fuc(a1-2)Gal(b1-3)[Fuc(a1-4)]GlcNAc
Summary of the method: as §1

[17] = molecular target: Fuc(a1-2)Gal(b1-3)[Fuc(a1-4)]GlcNAc(b1-2)Man(a1-3)[Fuc(a1-2)Gal(b1-3)[Fuc(a1-4)]GlcNAc(b1-2)Man(a1-3)]Man(b1-4)GlcNAc(b1-4)GlcNAc
Summary of the method: as §1

[18] = molecular target: Fuc(a1-2)Gal(b1-3)[Fuc(a1-4)]GlcNAc(b1-2)Man(a1-3)[Fuc(a1-2)Gal(b1-3)[Fuc(a1-4)]GlcNAc(b1-2)Man(a1-6)]Man(b1-4)GlcNAc(b1-4)GlcNAc
Summary of the method: as §1

[19] = molecular target: Fuc(a1-2)Gal(b1-3)[Fuc(a1-4)]GlcNAc(b1-2)Man(a1-3)[Fuc(a1-2)Gal(b1-3)[Fuc(a1-4)]GlcNAc(b1-2)Man(a1-6)]Man(b1-4)GlcNAc(b1-4)[Fuc(a1-6)]GlcNAc(b1-4)[Fuc(a1-6)]GlcNAc
Summary of the method: as §1

[20] = molecular target: Fuc(a1-2)Gal(b1-3)[Fuc(a1-4)]GlcNAc(b1-3)[Fuc(a1-3)[Gal(b1-4)]GlcNAc(b1-6)]Gal(b1-4)Glc
Summary of the method: as §1

[21] = molecular target: Fuc(a1-2)Gal(b1-3)[Fuc(a1-4)]GlcNAc(b1-3)[Gal(b1-4)GlcNAc(b1-6)]Gal(b1-4)Glc
Summary of the method: as §1

[22] = molecular target: Fuc(a1-2)Gal(b1-4)Fuc(a1-3)]GlcNAc(b1-2)Man(a1-3)[Fuc(a1-2)Gal(b1-4)[Fuc(a1-3)]GlcNAc(b1-2)Man(a1-6)]Man(b1-4)GlcNAc(b1-4)GlcNAc
Summary of the method: as §1

Fuc(a1-2)Gal(b1-4)Glc = molecular target: Fuc(a1-2)Gal(b1-4)Glc
Summary of the method: as §1

Fuc(a1-2)Gal(b1-4)Glc6S = molecular target: Fuc(a1-2)Gal(b1-4)Glc6S
Summary of the method: as §1

Fuc(a1-2)Gal(b1-4)GlcNAc = molecular target: Fuc(a1-2)Gal(b1-4)GlcNAc
Summary of the method: as §1

[23] = molecular target: Fuc(a1-2)Gal(b1-4)GlcNAc(b1-2)Man
Summary of the method: as §1

[24] = molecular target: Fuc(a1-2)Gal(b1-4)GlcNAc(b1-2)Man(a1-3)[Fuc(a1-2)Gal(b1-4)GlcNAc(b1-2)Man(a1-6)]Man(b1-4)GlcNAc(b1-4)GlcNAc
Summary of the method: as §1

[25] = molecular target: Fuc(a1-2)Gal(b1-4)GlcNAc(b1-2)Man(a1-3)[Fuc(a1-2)Gal(b1-4)GlcNAc(b1-2)Man(a1-6)]Man(b1-4)GlcNAc(b1-4)[Fuc(a1-6)]GlcNAc
Summary of the method: as §1

[26] = molecular target: Fuc(a1-2)Gal(b1-4)GlcNAc(b1-2)[Fuc(a1-2)Gal(b1-4)GlcNAc(b1-4)]Man(a1-3)[Fuc(a1-2)Gal(b1-4)GlcNAc(b1-2)Man(a1-6)]Man(b1-4)GlcNAc(b1-4)GlcNAc
Summary of the method: as §1

[27] = molecular target: Fuc(a1-2)Gal(b1-4)GlcNAc(b1-3)Gal(b1-4)GlcNAc
Summary of the method: as §1

[28] = molecular target: Fuc(a1-2)Gal(b1-4)GlcNAc(b1-3)Gal(b1-4)GlcNAc(b1-2)Man(a1-3)[Fuc(a1-2)Gal(b1-4)GlcNAc(b1-3)Gal(b1-4)GlcNAc(b1-2)Man(a1-6)]Man(b1-4)GlcNAc(b1-4)GlcNAc
Summary of the method: as §1

[29] = molecular target: Fuc(a1-2)Gal(b1-4)GlcNAc(b1-3)Gal(b1-4)GlcNAc(b1-3)Gal(b1-4)GlcNAc
Summary of the method: as §1

[30] = molecular target: Fuc(a1-2)Gal(b1-4)GlcNAc(b1-3)GalNAc
Summary of the method: as §1

[31] = molecular target: Fuc(a1-2)Gal(b1-4)GlcNAc(b1-3)[Fuc(a1-2)Gal(b1-4)GlcNAc(b1-6)]GalNAc
Summary of the method: as §1

[32] = molecular target: Fuc(a1-2)Gal(b1-4)GlcNAc(b1-3)[Fuc(a1-3)[Gal(b1-4)]GlcNAc(b1-6)]Gal(b1-4)Glc
Summary of the method: as §1

[33] = molecular target: Fuc(a1-2)Gal(b1-4)GlcNAc(b1-6)GalNAc
Summary of the method: as §1

[34] = molecular target: Fuc(a1-2)Gal(b1-4)GlcNAc6S
Summary of the method: as §1

[35] = molecular target: Fuc(a1-2)Gal(b1-4)[Fuc(a1-3)]GalNAc(b1-3)Gal(b1-4)[Fuc(a1-3)]GlcNAc
Summary of the method: as §1

[36] = molecular target: Fuc(a1-2)Gal(b1-4)[Fuc(a1-3)]GalNAc(b1-3)Gal(b1-4)[Fuc(a1-3)]GlcNAc(b1-3)Gal(b1-4)[Fuc(a1-3)]GalNAc
Summary of the method: as §1

[37] = molecular target: Fuc(a1-2)Gal(b1-4)[Fuc(a1-3)]GlcNAc
Summary of the method: as §1

[38] = molecular target: Fuc(a1-2)Gal(b1-4)[Fuc(a1-3)]GlcNAc(b1-2)Man(a1-3)[Fuc(a1-2)Gal(b1-4)[Fuc(a1-3)]GlcNAc(b1-2)Man(a1-6)]Man(b1-4)GlcNAc(b1-4)GlcNAc
Summary of the method: as §1

[39] = molecular target: Fuc(a1-2)Gal(b1-4)[Fuc(a1-3)]GlcNAc(b1-2)Man(a1-3)[Fuc(a1-2)Gal(b1-4)[Fuc(a1-3)]GlcNAc(b1-2)Man(a1-6)]Man(b1-4)GlcNAc(b1-4)[Fuc(a1-6)]GlcNAc
Summary of the method: as §1

B1: Nictaba (Nicotiana tabacum), Q94EW1 (protein)
chain: MQGQWIAARDLSITWVDNPQYWTWKTVDPNIEVAELRRVAWLDIYGKIETKNLIRKTSYAVYLVFKLTDNPRELERATASLRFVNEVAEGAGIEGTTVFISKKKKLPGELGRFPHLRSDGWLEIKLGEFFNNLGEDGEVEMRLMEINDKTWKSGIIVKGFDIRPN
- glycan array binding signal (z-score) (Fuc(a1-2)Gal): -0.273
- glycan array binding signal (z-score) (Fuc(a1-2)Gal(b1-3)GalNAc): -0.319
- glycan array binding signal (z-score) [1]: -0.299
- glycan array binding signal (z-score) [2]: -0.307
- glycan array binding signal (z-score) [3]: -0.281
- glycan array binding signal (z-score) [4]: -0.31
- glycan array binding signal (z-score) [5]: -0.254
- glycan array binding signal (z-score) [6]: -0.288
- glycan array binding signal (z-score) (Fuc(a1-2)Gal(b1-3)GlcNAc): -0.277
- glycan array binding signal (z-score) [7]: 0.189
- glycan array binding signal (z-score) [8]: -0.242
- glycan array binding signal (z-score) [9]: -0.249
- glycan array binding signal (z-score) [10]: -0.286
- glycan array binding signal (z-score) [11]: -0.378
- glycan array binding signal (z-score) [12]: -0.268
- glycan array binding signal (z-score) [13]: -0.282
- glycan array binding signal (z-score) [14]: -0.329
- glycan array binding signal (z-score) [15]: -0.382
- glycan array binding signal (z-score) [16]: -0.295
- glycan array binding signal (z-score) [17]: -0.321
- glycan array binding signal (z-score) [18]: -0.2
- glycan array binding signal (z-score) [19]: -0.313
- glycan array binding signal (z-score) [20]: -0.318
- glycan array binding signal (z-score) [21]: -0.29
- glycan array binding signal (z-score) [22]: 1.79
- glycan array binding signal (z-score) (Fuc(a1-2)Gal(b1-4)Glc): -0.337
- glycan array binding signal (z-score) (Fuc(a1-2)Gal(b1-4)Glc6S): -0.254
- glycan array binding signal (z-score) (Fuc(a1-2)Gal(b1-4)GlcNAc): -0.297
- glycan array binding signal (z-score) [23]: -0.383
- glycan array binding signal (z-score) [24]: 2.47
- glycan array binding signal (z-score) [25]: 0.325
- glycan array binding signal (z-score) [26]: 0.135
- glycan array binding signal (z-score) [27]: -0.274
- glycan array binding signal (z-score) [28]: 3.54
- glycan array binding signal (z-score) [29]: -0.301
- glycan array binding signal (z-score) [30]: -0.258
- glycan array binding signal (z-score) [31]: -0.2
- glycan array binding signal (z-score) [32]: -0.384
- glycan array binding signal (z-score) [33]: -0.385
- glycan array binding signal (z-score) [34]: -0.261
- glycan array binding signal (z-score) [35]: -0.268
- glycan array binding signal (z-score) [36]: -0.365
- glycan array binding signal (z-score) [37]: -0.289
- glycan array binding signal (z-score) [38]: 1.9
- glycan array binding signal (z-score) [39]: 5.19
